Tests used:
Assay type in all cases: cell-based, human
[1] = system: CD14+ monocytes with DLD-1 transduced to overexpress nectin-4
[2] = system: DCs with DLD-1 transduced to overexpress nectin-4
[3] = system: DCs with nectin-4 negative tumor cells (DLD-1 parental)
[4] = system: DLD-1 nectin-4 tumor cells
[5] = system: CD3+ T cells with DLD-1 tumor cells overexpressing nectin-4
[6] = system: CD56+CD3- NK cells with DLD-1 tumor cells overexpressing nectin-4

B1: TNT169a: "The antibody conjugates tested were TNT264a, TNT265a, TNT266a, TNT267a, and TNT169a"; antibody not stated here (conjugate)
heavy: EVQLVESGGGLVQPGGSLRLSCAASGFTFSSYNMNWVRQAPGKGLEWVSYISSSSSTIYYADSVKGRFTISRDNAKNSLSLQMNSLRDEDTAVYYCARAYYYGMDVWGQGTTVTVSSASTKGPSVFPLAPSSKSTSGGTAALGCLVKDYFPEPVTVSWNSGALTSGVHTFPAVLQSSGLYSLSSVVTVPSSSLGTQTYICNVNHKPSNTKVDKKV[letters of human IgG1 Fc and a few adjoining residues left out]
light: DIQMTQSPSSVSASVGDRVTITCRASQGISGWLAWYQQKPGKAPKFLIYAASTLQSGVPSRFSGSGSGTDFTLTISSLQPEDFATYYCQQANSFPPTFGGGTKVEIKRTVAAPSVFIFPPSDEQLKSGTASVVCLLNNFYPREAKVQWKVDNALQSGNSQESVTEQDSKDSTYSLSSTLTLSKADYEKHKVYACEVTHQGLSSPVTKSFNRGEC
In the case of B1, the “CD86 on human monocytes” value [1] is reported as “robust induction of CD86”, the “CD40 on human DCs” value [2] is reported as “robust induction of CD40” and the “CD40 on human DCs” value [3] is reported as “limited to no induction of CD40”. For the same molecule, the “phagocytosis of DLD-1 nectin-4 tumor cells by macrophages” value [4] was “robust phagocytosis”, the “CD69 expression on T cells” value [5] was “with the exception of TNT169a” and the “CD69 expression on NK cells” value [6] was “except TNT169a”. The “IRF7 expression by NK cells” value [6] was “moderately lesser activation”.
